In the supplement of paper PMC8285479:
Counter-ions that a name gives are not always drawn. ± gives the standard deviation of the averaged measurements. Whole data set: some 1,900 compounds, median “normalised cell viability (NPI; 0 = phenylarsine oxide control, 1 = DMSO control)” near 1, cut for the lowest 2% near 0.039. The list shows a part of the results.

Test system: NCI-H1944
Experiment: normalised cell viability (NPI; 0 = phenylarsine oxide control, 1 = DMSO control) (fraction of DMSO control); NCI-H1944 is a non-small cell lung cancer line; higher = more viable cells (less compound toxicity)
Settings: 6 days
[1] = glucocorticoid arm: hydrocortisone 2.75 uM co-treatment, compound 1 µM
[2] = glucocorticoid arm: hydrocortisone 2.75 uM co-treatment, compound 5 µM
[3] = glucocorticoid arm: hydrocortisone 2.75 uM pre-treated 2 days and continued, compound 1 µM
[4] = glucocorticoid arm: hydrocortisone 2.75 uM pre-treated 2 days and continued, compound 5 µM
[5] = glucocorticoid arm: vehicle, compound 1 µM
[6] = glucocorticoid arm: vehicle, compound 5 µM
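Further: CTB read-out in 384-well plates, mean of triplicate wells, normalised per plate against 1 µM phenylarsine oxide and 0.1% DMSO, compounds added 24 h after seeding.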

Row | SMILES | normalised cell viability [1] | normalised cell viability [2] | normalised cell viability [3] | normalised cell viability [4] | normalised cell viability [5] | normalised cell viability [6]
1 | Cc1cccc(C(=O)NCN2CCN(c3ccccc3C#N)CC2)c1 [PD 168,077 maleate] | 0.9943 ± 0.0081 | 0.957 ± 0.013 | 1.01 ± 0.03 | 0.968 ± 0.0087 | 0.9923 ± 0.0061 | 0.99 ± 0.0076
2 | CN(C)CCCN1c2ccccc2CCc2ccccc21 [Imipramine hydrochloride] | 1 ± 0.017 | 0.979 ± 0.015 | 1.013 ± 0.0058 | 1.06 ± 0.091 | 0.9927 ± 0.004 | 1.001 ± 0.0081
3 | CN1CCN(c2ccc(OC(F)(F)F)c(Nc3ncc4c(n3)-c3c(c(C(N)=O)nn3CCO)CC4)c2)CC1 | 0.183 ± 0.025 | 0.146 ± 0.02 | 0.428 ± 0.025 | 0.556 ± 0.069 | 0.0347 ± 0.0042 | 0.0361 ± 0.0086
4 | Fc1ccc([C@@H]2CCNC[C@H]2COc2ccc3c(c2)OCO3)cc1 [Paroxetine hydrochloride hemihydrate (MW = 374.83)] | 0.9837 ± 0.0085 | 0.965 ± 0.018 | 0.991 ± 0.0082 | 0.992 ± 0.0085 | 0.985 ± 0.011 | 0.9777 ± 0.0023
5 | Fc1ccc([C@@H]2CCNC[C@H]2COc2ccc3c(c2)OCO3)cc1 [Paroxetine HCl] | 1.01 ± 0.016 | 0.963 ± 0.021 | 1.023 ± 0.0058 | 0.978 ± 0.0044 | 1.007 ± 0.0058 | 1.007 ± 0.0058
6 | Cn1cc(-c2ccc3nnc(Sc4ccc5ncccc5c4)n3n2)cn1 | 1.02 ± 0.015 | 1.04 | 1.02 ± 0.022 | 1.02 ± 0.033 | 1.02 ± 0.015 | 1.027 ± 0.0058
7 | Clc1ccc(Nc2nnc(Cc3ccncc3)c3ccccc23)cc1 [Vatalanib dihydrochloride (PTK787)] | 0.987 ± 0.011 | 0.959 ± 0.028 | 0.9987 ± 0.0023 | 0.958 ± 0.029 | 1.006 ± 0.0063 | 0.9923 ± 0.0023
8 | O=C1NC(=O)/C(=C/c2cccc(C(F)(F)F)c2)S1 | 1 ± 0.019 | 1.01 ± 0.015 | 0.996 ± 0.02 | 1.02 ± 0.023 | 0.9948 ± 0.0089 | 0.9983 ± 0.0063
9 | Cc1cc(O)c2c(c1)C(=O)c1cc(O)cc(O)c1C2=O [Emodin] | 1.017 ± 0.0058 | 0.998 ± 0.011 | 1.02 ± 0.028 | 1.01 ± 0.023 | 1.002 ± 0.0068 | 1.01
10 | COC(=O)c1ccc2c(C(=Nc3ccc(N(C)C(=O)CN4CCN(C)CC4)cc3)c3ccccc3)c(O)[nH]c2c1 [BIBF1120 (Vargatef)] | 0.961 ± 0.019 | 1.01 ± 0.041 | 0.9907 ± 0.0059 | 1.03 ± 0.021 | 0.987 ± 0.011 | 0.9937 ± 0.0055
11 | CN1CCN(C2CCN(C(=O)Nc3cc(Oc4ccc(NC(=O)C5(C(=O)Nc6ccc(F)cc6)CC5)c(F)c4)ccn3)CC2)CC1 [Golvatinib (E7050)] | 1.07 | 1.12 ± 0.026 | 1.07 ± 0.029 | 1.07 ± 0.026 | 1.03 | 1.033 ± 0.0058
12 | Nc1ccc2c3c(cccc13)C(=O)NC2=O [4-Amino-1,8-naphthalimide] | 0.99 ± 0.0095 | 0.9813 ± 0.0097 | 0.9903 ± 0.0021 | 0.983 ± 0.024 | 0.996 ± 0.013 | 1.004 ± 0.01
13 | Cc1cc2c(F)c(Oc3ncnn4cc(OC[C@@H](C)O)c(C)c34)ccc2[nH]1 | 1.02 ± 0.015 | 1.03 ± 0.026 | 1.01 | 1.02 ± 0.015 | 1.017 ± 0.0058 | 1.05 ± 0.011
14 | O=C1C(SCCO)=C(SCCO)C(=O)c2ccccc21 | 1.02 ± 0.01 | 1.033 ± 0.0058 | 1.01 | 1.02 ± 0.01 | 1.007 ± 0.0058 | 1.01 ± 0.025
15 | CCCn1c(=O)c2[nH]c(-c3ccc(OCC(=O)Nc4ccc(C#N)cc4)cc3)nc2n(CCC)c1=O | 0.995 ± 0.014 | 0.968 ± 0.049 | 0.993 ± 0.0061 | 1.04 ± 0.091 | 0.9957 ± 0.004 | 0.996 ± 0.013
16 | Nc1c2c(nc3ccccc13)CCCC2O (stereo unspecified) [Hydroxytacrine maleate salt] | 0.988 ± 0.016 | 0.977 ± 0.0076 | 0.998 ± 0.014 | 0.988 ± 0.018 | 0.9767 ± 0.0031 | 0.977 ± 0.0056
17 | Cc1cc(N)c2ccccc2[n+]1CCCCCCCCCC[n+]1c(C)cc(N)c2ccccc21 [Dequalinium chloride hydrate] | 0.888 ± 0.026 | 0.0383 ± 0.0062 | 0.963 ± 0.016 | 0.0385 ± 0.0016 | 0.991 ± 0.013 | 0.00579 ± 0.0022
18 | C[C@@H]1C(=O)NC2=Nc3cccc(Cl)c3CN21 [Quazinone] | 1.002 ± 0.0072 | 1.01 ± 0.012 | 1.01 ± 0.015 | 1.01 ± 0.015 | 0.998 ± 0.0035 | 0.998 ± 0.013
19 | Oc1cc2c(cc1O)C(c1ccccc1)CNCC2 (racemic) | 0.987 ± 0.014 | 0.982 ± 0.013 | 0.982 ± 0.023 | 0.972 ± 0.011 | 0.992 ± 0.0044 | 0.9913 ± 0.0021
20 | Cn1ccc2cc3c(cc21)CCN3C(=O)Nc1cccnc1 | 1.02 ± 0.011 | 1.01 ± 0.018 | 1.05 ± 0.021 | 1.02 ± 0.017 | 1.03 ± 0.011 | 1.01 ± 0.01
21 | O=C(O)CP(=O)(O)O [Phosphonoacetic acid] | 0.985 ± 0.0099 | 1.01 ± 0.011 | 0.999 ± 0.02 | 0.9877 ± 0.006 | 0.9957 ± 0.0067 | 0.987 ± 0.013
22 | C=CC(=O)Nc1cccc(Nc2nc(Nc3ccc(OCCOC)cc3)ncc2F)c1 | 0.9277 ± 0.0042 | 0.6 ± 0.023 | 0.939 ± 0.012 | 0.689 ± 0.076 | 0.996 ± 0.004 | 0.464 ± 0.09
23 | N#Cc1c(NC(=O)c2cccc3ccccc23)sc2c1CCCC2 [JNK Inhibitor IX] | 0.249 ± 0.02 | 1.02 ± 0.023 | 0.513 ± 0.029 | 1.03 ± 0.015 | 0.0543 ± 0.0025 | 0.961 ± 0.032
24 | NCCNC(=O)c1ccc(Cl)cc1 [Ro 16-6491 hydrochloride] | 0.998 ± 0.014 | 1.02 ± 0.021 | 1.02 ± 0.015 | 1.02 ± 0.017 | 1.001 ± 0.0081 | 0.991 ± 0.0069
25 | CCC(=O)Nc1cccc(Oc2nc(Nc3ccc(N4CCN(C)CC4)cc3OC)ncc2Cl)c1 | 1.07 ± 0.017 | 1.11 ± 0.01 | 1.057 ± 0.0058 | 1.07 ± 0.035 | 1 ± 0.011 | 1.01 ± 0.01
26 | CCN(CC)CCCCCCCCOC(=O)c1cc(OC)c(OC)c(OC)c1 [TMB-8 hydrochloride] | 0.979 ± 0.006 | 0.958 ± 0.0079 | 0.978 ± 0.013 | 0.974 ± 0.024 | 0.971 ± 0.014 | 0.9737 ± 0.0076
